# Results published in the supplement of paper PMC11417369.
# The list shows a part of the results.
# Tested on: PF3D7_0420300 AP2 domain 1 (GST-tagged)
# Test: gcPBM binding intensity (ln(normalized median fluorescence intensity)); higher = stronger DNA binding
# Outline: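 Using an Agilent 4 × 180k array, primer-extended double-stranded 36-bp intergenic genomic probes and negative controls were exposed for 1 h to GST-fused P. falciparum DNA-binding domains expressed in E. coli. Binding was carried out in 1× PBS with 1% milk, 0.2 mg/ml BSA, 0.5% salmon testes DNA and 0.03% Triton X-100, and protein was detected with Alexa488 anti-GST antibody and a 488 nm scan. Binding intensity is the highest Masliner-normalised natural-log median intensity across replicate spots of either probe orientation.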
row,Sequence,gcPBM binding intensity (ln)
1,AATGTAGGTTTATTTACACACAAATATAGATATATA [CACACA_site6825],9.56
2,ATGTTGCTCATATGAGTGCACGTTTCATTTCAGTTT [GTGCAC_site9865],9.49
3,CTATTTCGTATATATAGTACATATTATAACATACTA [XGTACX_site978],9.35
4,AATTTATATAATTTTGTGCACAATATTCATGTATAT,9.37
5,ACAAAATAAAAACACACACACAAACACAAAAAAATA [CACACA_site3390],10.3
6,AGCTCTTGTCATTTTGCACACACACCGGTATAGGTT [CACACA_site5654],10.1
7,TATATATACAGACACATACACACAAATAAAAAAACA [CACACA_site3413],10.1
8,AGAAGGTAAAAACACACACACACATACAAAAAAAAA [CACACA_site3767],10.1
9,TATACATACTCACCCACACACAAAAAAAAAAAAAAA [CACACA_site862],9.34
10,TATTTAATGTGATACTTATATTATTTTATGATTAAA [GTGCAC_negctrl_site25],9.06
11,TATATAAGAATTTTTACACACATGAAAATGTAGATA [CACACA_site3735],9.33
12,ATATGTGTGTAGTGTTCAATTATATTGATGTGAAGG [TGCATGCA_negctrl_site462],9.64
13,GAACCGTGCAAATGTTGTACACTTTAAAAATATTCT [XGTACX_site4488],9.21
14,ATAATATATATATTAACACACATCCTTTTATGTATA [CACACA_site1203],9.54
15,TTATAATAATTTTATGCACACAGAAAAATACAAGGT [CACACA_site9169],9.61
16,TAGGAGCCTAGACACACACACAAAAAAAAAAAAAAA [CACACA_site6911],9.39
17,TACATATAGAAACACACACACATATATATATATATA [CACACA_site1300],9.72
18,AAAACGAAAATTTGGAAACCAAAGGAAAAACATAAT [GTGCAC_negctrl_site709],9.62
19,AAAAAGGTTATTGGTACACACATATGTATATATATA [CACACA_site552],9.54
20,ACATATTAAAATATATGTACATAAAATATGAAAAAA [XGTACX_site5869],9.48
21,ATATTTATTCCTTTTGGTACACAAAAAAAAAAAAAA [XGTACX_site8126],8.8
22,TATATGCTATAATATACACACATACCTATATTTATA [CACACA_site6383],9.6
23,AATTTAAGCAGAACATATATATATATATATATAAAG [CACACA_negctrl_site769],9.19

row,Sequence,gcPBM binding intensity (ln)
1,AATTATTTCTTTTACACATGCAATATTTAATTAAAA [TGCATGCA_site598],9.05
2,TTTAAATGCTTTTTGTGGTGACTTATCCTTTCATAA [XGTACX_negctrl_site109],9.17
3,GTTAGGATAGATTAGACATGCACATAAATGCACTTC [TGCATGCA_site561],9.09
4,TTTTTATAGAATTTAACACACATTTCATATAAAAAA [CACACA_site7453],8.89
5,TTAAAATTCAAAAAAAAAAATCAGAATATCAGAAAA [CACACA_negctrl_site1361],9.08
6,TATATAACATAATATACACACATTATATGCGTAATT [CACACA_site6098],9.45
7,ATTAAAGAAATATATACACACATTATGGGGGAATAA [CACACA_site178],9.83
8,GATATATAAATAAATACACACATAAAATAGAAATAT [CACACA_site6881],9.93
9,TAATAATAAACAACCACACACAAAAAAACAAAAAAA [CACACA_site3269],9.98
10,ATTTAATTATGTAAGTGTACTTTGGAATATAATATT [XGTACX_site3186],9.28
11,GTAGCACATATATATTGTACATAATATATACATTAT [XGTACX_site6354],9.31
12,TTTATTTTATAATTCACACATATATACCTATTTTAT [CACACA_site5709],9.3
13,GTGTGGTGCTCGAGGAGTACAAACAATATGTAATTT [XGTACX_site4160],9.09
14,TAAACAGACATATAAACACACATATAAACAGACATA [CACACA_site7214],9.91
15,AATATAAGTAATTATACACACTTAATATTTATATAC [CACACA_site7334],9.44
16,TTTTCTTCCTATTATTGTACATATAGTATTCTTTCA [XGTACX_site4428],9.47
17,TTATTTGATTACTTGCGTACTTATTTCATATTTTTT [XGTACX_site6648],9.59
18,GGGATATTTTAAAGGGTGCATATTATTAAAATAATG,9.17
19,ATGAGAAAACATAAAAGTACAAAAAGAAAAAAAAAA [XGTACX_site6020],9.35
20,TATTATATTAATGATGGTACAGTGTATATATATAAT [XGTACX_site1286],9.42
21,TTGGGTCAAACATAAACACACACAAAAAGAAAAAAT [CACACA_site8328],10
22,ACATATAATATAAAGTGTACAAGAAAATAAAAATAA [XGTACX_site1273],9.53
23,TTTCCATATTTTTAAAGTACATATTTCCGTTTCCAC [XGTACX_site7832],9.25

row,Sequence,gcPBM binding intensity (ln)
1,CAATTTTTATGTGTGTGTACTCATTTGTTTTATAAA [XGTACX_site406],9.81
2,ATACAACAGATATATACACACATATAACAATAATAA [CACACA_site7560],9.93
3,TTGGAATAATATAAATAAATAAATATATATATATAT [CACACA_negctrl_site900],9.05
4,AAAAAAAAAAAATGTGCACACGCGTACACCCAAAAA [CACACA_site8614],9.51
5,TTTCTTTTTGTTCGTGTACACACATGAAATTTATAA [CACACA_site8466],9.49
6,AATTATACATATATTTAACACACATTTTATAAAGTG [CACACA_site8362],9.34
7,ATATATATATATAATTGTACATGTGTGTATAATTTG [XGTACX_site2417],9.44
8,TTTTATTTTATATAACAACAAAATGGAAATATATAT [GTGCAC_negctrl_site71],9.19
9,GTCAATATTTAGATATGTACTAAGGAGTGCTATATA [XGTACX_site222],9.24
10,TAAATGAAAATAAATTAACACACAATTTTAATATTG [CACACA_site8360],9.3
11,TGCTACATAATATGTACACACATATACATATTTATA [CACACA_site6545],9.52
12,GTATGATTAAATAAAGGTACACTTATATTTATTTAT [XGTACX_site6966],9.22
13,TATCACATTTATGAGAGTACATAATTAATTCATGAT [XGTACX_site7850],9.04
14,GAATTAATTTTAAAACGTACATGGGTGTATTTACAC [XGTACX_site5939],9.23
15,TTCTTTTTTGTAATAACACACACACTAACAGAAAAA [CACACA_site8646],9.75
16,CATAATACAAATGTGATACCTGAAAATGACTTATTA [CACACA_negctrl_site994],9.3
17,GTAATAAATTAAATATGTACATATTAAAATTAAGGA [XGTACX_site2290],9.16
18,ATTGATACATCCAATACACACTACAGATAATGATGT [CACACA_site5098],9.45
19,AATTTCTTCCATTGTAGTACTCAATTTTTTTTTGTT [XGTACX_site5847],9.69
20,GTGTAATATTATATATATATATATAATATATATACA [CACACA_negctrl_site263],9.11
21,AAAAAAAAAAAAATGGTGCAACTTTGTTAAAGGAAA [GTGCAC_site9950],9.22
22,ATTTAAAAGTTGGTAGTGCATTAAAAATAACAAAAA [GTGCAC_site9835],9.26
23,ATTAAATACATTAACACACACACAAATAAATACATA [CACACA_site5583],10.3

row,Sequence,gcPBM binding intensity (ln)
1,TTTTATTATTTGTCTTGTACTCATTGTAAGAGTATG [XGTACX_site1538],9.17
2,TACATACATACATACACACACACATCTATATTTATA [CACACA_site6171],10
3,GACAGATTATAGCATAGTACTCATACATACATACAT [XGTACX_site1252],9.38
4,TTTCAAAAATTATTTTGTACATATAATTAATATACG [XGTACX_site512],8.94
5,ATTAGGCATATTTTCTGTACACAATAATAAAAAAAA [XGTACX_site3957],9.04
6,TTCTCAAAGTTTACGTGTACATAAATTATATAAATG [XGTACX_site2622],9.03
7,TGTAATATGAAATGTGTACACACGCACCCACAAAAA [CACACA_site8948],9.77
8,AATGAATTTAATTCTACTATTTTTTTTTTAAATATT [XGTACX_negctrl_site296],8.95
9,TTCCCTTATTTTGTATGTACACAATTTATCATGTTG [XGTACX_site2896],9.65
10,ATATATATATATGCATGTACATATATTTGTTATATC [XGTACX_site3197],9.24
11,AATAGATATATAAATACACACAAACATACCTATATA [CACACA_site7823],10
12,AAACAAAGGGAACATGTGCACTTACAAAAAAAAAGA,9.48
13,TCACACCTTTTTGGTTGTACTTAAATTTCTTTTTTT [XGTACX_site6438],9.18
14,TATATATGGGTACTAATTCCTTTAATTTCTTTAATT [CACACA_negctrl_site949],9.25
15,AATTATATTCAAAATGGTACACACAATATTTAATTG [XGTACX_site5521],9.37
16,AAAAAAAAATTAGGGGTGCCATTTGCTGCTGTGCTT [GTGCAC_site9913],9.21
17,TTTTGTATTTCTCACACACACATAAGTAAACAATAA [CACACA_site5105],9.72
18,TAAACTATATTTACATGTACATATAATATTAAATAA [XGTACX_site3528],9.15
19,CCTATAAAACCATATACACACATATAAATAAAAAAA [CACACA_site7809],9.68
20,TATTACATTATTCAAAAAAATTTATATGGTTATAGG [CACACA_negctrl_site1657],8.92
